# Assay results reported in PubChem BioAssay AID1347073 (National Center for Advancing Translational Sciences (NCATS), 2019).
# Screen size: about 45,000 compounds; about 200 (0.44%) were called active. Not shown: some 7% with an inconclusive outcome. Calls come from the whole dose curve; as a rule, active = well fitted activation curve with a large enough effect; inconclusive = small, poorly fitted or top-dose-only effect; inactive = no such curve, though single readings can be large or run the other way. The list shows a part of the results.
# Experiment: qHTS of TDP-43 Inhibitors: NCGC Sytravon Library Screen; note: 0% is about no effect; nearly all actives have a fitted effect of over 55% in size
# Details: yeast TDP-43 toxicity rescue, BacTiter-Glo growth, 24 h; series mostly up to 46.1 µM; growth rescue (activation): at the top concentration
# Method in brief: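 TDP-43-expressing yeast, pregrown in raffinose, seeded at OD600 0.02 in galactose medium with compound for 24 hr at 30 deg C. Growth read by BacTiter-Glo luminescence, so rescue of toxicity appears as activation.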
row,Compound,growth rescue (activation)
1,CC(=O)N(c1nc(CCl)cs1)c1c(C)cc(C)cc1C,inactive: 4.53%
2,O=C(NCCCl)Nc1cccc(Br)c1,inactive: 0.598%
3,COc1ccc(NC(=O)CNC(=O)c2nn(-c3ccc(OC)c(OC)c3)c(=O)c3ccccc23)c(OC)c1,inactive: 2.99%
4,C=CCn1c(SCC(=O)N(C)CC(=O)Nc2ccc(C)cc2)nnc1-c1ccncc1,inactive: 9.89%
5,CCC(CC)c1nnc(NC(=O)c2ccc3c(c2)OCO3)s1,inactive: 13.6%
6,CC1CN(C(=O)CCS(=O)(=O)c2ccccc2)CC(C)O1 (centres undefined),inactive: -0.176%
7,Cc1ccc(N(CCC(=O)O)S(=O)(=O)c2ccc(C)cc2)cc1,inactive: 3.06%
8,Cc1sc2ncn(CC(=O)NCCCN3CC(C)CC(C)C3)c(=O)c2c1S(=O)(=O)N1CC(C)CC(C)C1 (centres undefined),inactive: -2.52%
9,Cc1cccc(S(=O)(=O)Nc2nc3ccccc3nc2NCc2ccc3c(c2)OCO3)c1,inactive: 10.2%
10,COc1ccc(CN2CCCN(S(=O)(=O)c3ccc(Br)cc3)CC2)cc1,inactive: -15.9%
11,C[C@H](NC(=O)Nc1cccc(Br)c1)C(=O)O,inactive: 18.5%
12,COc1ccccc1C(=O)OCCN=C1NS(=O)(=O)c2ccccc21,inactive: -2.65%
13,CSc1ccc(C(=O)C2CCCN(C(=O)CN3CCOC3=O)C2)cc1 (centres undefined),inactive: 10.8%
14,CCOP(=O)(NC(c1ccccc1)c1nc2ccccc2[nH]c1=O)OCC (centres undefined),inactive: 3.35%
15,COc1cc(C(=O)Nc2nc3ccc(S(C)(=O)=O)cc3s2)cc(OC)c1C,inactive: 4.86%
16,CC(OC(=O)c1cc(S(=O)(=O)Nc2ccc(F)cc2)ccc1Cl)C(=O)Nc1ccc2c(c1)OCCO2 (centres undefined),inactive: 8.97%
17,Cc1ccc(C)c(CN2C(=O)c3ccccc3S(=O)(=O)c3ccc(C(=O)N4CCN(c5ccccc5)CC4)cc32)c1,inactive: 11.2%
18,COc1ccc(N2CCN(C(=O)c3cc(-c4cc(OC)ccc4OC)nc4ccccc34)CC2)cc1,inactive: 27.1%
19,CC(C)C(OC(=O)C1=Cc2ccccc2OC1)C(=O)NCC1CCCO1 (centres undefined),inactive: 0.664%
20,Cc1ccc(/C=C/C(=O)CCC(=O)O)cc1,inactive: 20.8%
21,COc1ccc(OC)c(/C=C/C(=O)OCC(=O)N2CCCCC2)c1,inactive: 0.761%
22,Cc1ccc(S(=O)(=O)n2[nH]c(=O)c(CCO)c2C)cc1,inactive: -9.28%

row,Compound,growth rescue (activation)
1,CC(C)Oc1ccc(F)cc1-c1cc(C(=O)NCc2ccc(F)cc2)[nH]n1,inactive: 14.1%
2,COc1ccc([N+](=O)[O-])cc1NCC(=O)c1ccc(C)cc1,inactive: -10%
3,CCN(CC)CCCn1c(C)cc2c(c1=O)C(c1cccc(Cl)c1)C(C#N)=C(N)O2 (centres undefined),inactive: -8.7%
4,COC(=O)c1ccc(/C=C/C(=O)OCC(=O)NCc2cccs2)cc1,inactive: 2.06%
5,CN(C)/C=C(/C(=O)c1ccc(F)cc1)S(=O)(=O)c1ccc(F)cc1,inactive: 11.1%
6,Cc1ccc(NC(=O)CCS(=O)(=O)c2cccc3nonc23)cc1Cl,inactive: -6.97%
7,O=C(O)/C=C/c1cn(-c2ccccc2)nc1-c1cc2ccccc2o1,inactive: -18.3%
8,C=CCn1c(C(C)(C)C)nc2ccccc21,inactive: 3%
9,O=C(Nc1nn[nH]n1)c1ccc(S(=O)(=O)N2CCCCC2)cc1,inactive: 11.2%
10,COc1cccc(-c2cnc3cccnn23)c1,inactive: 29.2%
11,CCNC(=O)N1CCCC(C(=O)c2ccc(OC)c(OC)c2)C1 (centres undefined),inactive: 1.65%
12,CCc1nc2c(OCc3ccc(F)cc3)cccn2c1N(C)C(=O)c1ccncc1,inactive: 16.2%
13,N#Cc1nc(-c2ccc(OCc3ccccc3)cc2)oc1N1CCC(C(N)=O)CC1,inactive: 16.7%
14,COCCN(C(=O)c1csnn1)C(C(=O)NC1CCCC1)c1ccccc1 (centres undefined),inactive: -7.83%
15,COc1ccc(C(=O)N2c3ccccc3C(C)(c3ccc(Cl)cc3)CC2(C)C)cc1 (centres undefined),inactive: 4.02%
16,CCOC(=O)/C(C#N)=C/c1c(N2CCN(Cc3ccc4c(c3)OCO4)CC2)nc2c(C)cccn2c1=O,inactive: -10.1%
17,O=C(Nc1nc2ccc(F)cc2s1)Oc1ccccc1,inactive: -15.8%
18,c1ccc(CNc2nc(NCc3cccs3)nc3ccsc23)cc1,inactive: 4.57%
19,Cc1occc1-c1nnc(SCC(=O)N2CCCc3ccccc32)n1Cc1ccco1,inactive: 24.9%
20,Cc1c(Cl)cccc1NC(=O)CCC(=O)NNC(=O)c1ccccc1,inactive: 7.32%
21,COc1ccc(NC2CCCN(C(=O)CCC(=O)c3ccc(F)cc3)C2)cc1 (centres undefined),inactive: 2.55%
22,CCOCCCNC(=O)CCc1nnc2n(CCC(C)C)c(=O)c3ccccc3n12,inactive: -0.496%

row,Compound,growth rescue (activation)
1,COc1ccc(C(=O)Nc2cc(Cl)ccc2N2CCOCC2)cc1S(=O)(=O)N1CCOCC1,inactive: 2.18%
2,Cc1cc(C)n(-c2cccc(CN3CCC(CO)(Cc4ccccc4)CC3)c2)n1,inactive: 0.166%
3,COc1cccc(CC2(CO)CCN(Cc3cnc(N4CCOCC4)s3)CC2)c1,inactive: 3.48%
4,O=C(CSc1nc2nc(-c3cccs3)cc(C(F)(F)F)c2c(=O)[nH]1)NCc1ccco1,inactive: 5.25%
5,Cc1nc2ccc(NC(=O)c3cccc(S(=O)(=O)N4CCOCC4)c3)cc2s1,inactive: 9.06%
6,CCc1cccc(NC(=O)CC2SC(N3CCCC3)=NC2=O)c1 (centres undefined),inactive: 17.7%
7,O=C(CCn1cccc1)NCCc1ccc(Cl)cc1,inactive: 28.6%
8,O=[N+]([O-])c1cc2c(cc1Br)CCN2,inactive: 4.23%
9,C/C(=N\Nc1ccc(Cl)nn1)c1ccccc1O,inactive: -2.7%
10,CN(Cc1c(C(=O)N2CCc3ccccc3C2)nc2ccc(Cl)cn12)C(C1CC1)C1CC1,inactive: 4.65%
11,O=C(COC(=O)c1cccnc1Cl)NC(=O)NC1CCCCC1,inactive: -3.29%
12,O=C(Cn1c(=O)oc2ccccc21)Nc1ccc(C(=O)O)cc1,inactive: 7.13%
13,CC1CC(C)CN(S(=O)(=O)CC23CCC(CC2=O)C3(C)C)C1 (centres undefined),inactive: 13.5%
14,CCOC(=O)Nc1ccc2c(COC(=O)c3ccccc3O)cc(=O)oc2c1,inactive: -2.96%
15,O=C1CN(S(=O)(=O)c2ccccc2)CCN1,inactive: -0.832%
16,COc1ccc(Cn2c(C(=O)O)c(CNCc3ccccc3F)c3ccc(OC)cc32)cc1,inactive: 8.33%
17,CCCSc1ncc(Cl)c(C(=O)Nc2ccc(S(=O)(=O)N(C)c3ccccc3)cc2)n1,inactive: 12.5%
18,Cn1ccnc1SCC(=O)c1c[nH]c2ccccc12,inactive: 1.8%
19,CCOc1ccccc1-c1nc(CN2CCCN(C(=O)c3ccco3)CC2)c(C)o1,inactive: 20.5%
20,COc1ccc(-c2[nH]ncc2CN2CCC(OCc3ccccc3)CC2)c(F)c1,inactive: 11.5%
21,O=C(CCS(=O)(=O)c1ccc(Br)s1)Nc1ccccc1Br,inactive: 22%
22,CC(=O)c1ccc(NC(=O)COC(=O)c2ccccc2Nc2ccccc2)cc1,inactive: -19.9%

row,Compound,growth rescue (activation)
1,Cc1cc(-c2nc3c4c5c(sc4[nH]c(=O)n3n2)CCC5)c(C)o1,inactive: 27.3%
2,Cn1c(-c2cc3c(C(F)(F)F)nn(C)c3s2)n[nH]c1=S,inactive: 2.93%
3,COc1cccc(NC(=O)C2(C)CCN2CC2CCCCC2)c1 (centres undefined),inactive: 12.6%
4,Cc1occc1C(=O)NC(C)CCc1ccccc1 (centres undefined),inactive: -38.1%
5,COc1ccc(NS(=O)(=O)c2cc(NC(=O)C3CCCO3)ccc2N2CCCC2)cc1 (centres undefined),inactive: 15.6%
6,O=C1N/C(=N\N=C\c2cccs2)SC1Cc1cccc(Cl)c1Cl (centres undefined),inactive: -11.9%
7,CCOC(=O)Nc1ccc(OC)c([N+](=O)[O-])c1,inactive: 17.2%
8,CCOC(=O)C(=NCCCN(C)C)NNc1cc(C(F)(F)F)ccc1Cl,inactive: 7.79%
9,CCC(=O)N1CCC1(C)C(=O)Nc1ccc(Cl)c(Cl)c1 (centres undefined),inactive: 13.9%
10,CC(C)CCNC(=O)C1CCC(CNc2c(N3CCCC3)c(=O)c2=O)CC1 (centres undefined),inactive: 1.11%
11,COc1ccc(Cl)cc1NC(=O)C1CC(=O)N(c2ccc(F)cc2)C1 (centres undefined),inactive: 7.97%
12,CCN(CC)S(=O)(=O)c1ccc(NC=C(C#N)C#N)cc1,inactive: 21.6%
13,CN(C(=O)c1coc(=O)c2ccccc12)c1ccccc1Cl,inactive: 22.4%
14,O=C(NC1CCN(Cc2ccccc2)CC1)c1c(F)cccc1F,inactive: -0.611%
15,COc1ccc(NC(=S)Nc2ccccc2OC)c(OC)c1,inactive: 7.49%
16,CCN1CCN(c2ccc(NC(=O)c3ccco3)cc2Cl)CC1,inactive: 0.3%
17,O=C(O)c1cccnc1Oc1ccccc1,inactive: 20.3%
18,COCCCN1CC(=O)N2C(c3cccc(C)c3)c3[nH]c4ccccc4c3C[C@H]2C1=O (some centres undefined),inactive: 1.92%
19,COc1ccc(-c2ccc(S(=O)(=O)N3CCCC3)cc2)cc1,inactive: 20.2%
20,COc1ccccc1CN(C)C(=O)COC(=O)c1c(C)noc1C,inactive: 0.62%
21,COc1cccc(N2CCN(C3CC(=O)N(c4ccc(Cl)cc4)C3=O)CC2)c1 (centres undefined),inactive: 25.4%
22,O=C(Nc1cccc([N+](=O)[O-])c1)c1cnccn1,inactive: 24%

row,Compound,growth rescue (activation)
1,CCCc1nnc(SCC(=O)NC2CCCCC2)n1CCOC,inactive: -18.1%
2,Cc1ccnc(NS(=O)(=O)c2ccc(Cl)nc2)c1,inactive: 12.4%
3,Cc1ccc(C)c(C(=O)CCC(=O)N2CCN(c3ncccn3)CC2)c1,inactive: 27.5%
4,O=C(O)c1cc(=O)c2ccccc2o1,inactive: 6.11%
5,Cc1[nH]nc2c1C(c1ccc(-c3ccc(Cl)cc3)o1)C(C#N)=C(N)O2 (centres undefined),inactive: 7.63%
6,O=C(COC(=O)c1cc[n+]([O-])cc1)Nc1ccc(SC(F)F)cc1,inactive: -33.1%
7,O=C(O)CC1(CC(=O)N2CCOCC2)CCCC1,inactive: 6.45%
8,CC(C)c1ccc(S(=O)(=O)c2ccc(NN)cc2)cc1,inactive: 20.8%
9,Cc1ccc(-c2c[n+](CC(=O)N3c4ccccc4Sc4ccccc43)c3n2CCC3)cc1,inactive: -16.9%
10,O=C(Cc1ccc(Cl)c(Cl)c1)NC1CCCCCC1,inactive: -11.8%
11,O=C(CCSc1nc(-c2ccco2)cc(C(F)(F)F)n1)NCCc1ccccc1,inactive: -21.5%
12,O=C(O)CCn1cc(/C=C2\SC(=S)NC2=O)c(-c2ccccc2)n1,inactive: 1.08%
13,Cc1cc([N+](=O)[O-])nn1CC(=O)N1CCCc2ccccc21,inactive: 11.6%
14,Cc1cc2cc(C)c3nnc(SCC(=O)Nc4ccc(S(=O)(=O)N5CCCCC5C)cc4)n3c2cc1C (centres undefined),inactive: 17.9%
15,Cc1ccc(C(=O)N/C(=C\c2ccco2)C(=O)NCCN2CCOCC2)cc1,inactive: 7.29%
16,O=C(NNC(=S)NCc1ccc(Cl)cc1)c1ccc2c(c1)OCO2,inactive: -6.98%
17,O=C(Nc1nc2ccccc2[nH]1)c1cc(F)cc(F)c1,inactive: 5.43%
18,O=C1CN(C(=O)COC(=O)CNS(=O)(=O)/C=C/c2ccccc2)c2ccccc2N1,inactive: 4.98%
19,O=C(CCl)NNc1nc(-c2ccccc2)c2cc(Cl)ccc2n1,inactive: 8.37%
20,Clc1cnc(N/N=C/c2ccncc2)c(Cl)c1,inactive: 5.34%
21,Cc1cccc(C)c1NC(=O)CN(C)C(=O)CCC(=O)N1CCOCC1,inactive: 23.1%
